Data as given in a compilation of properties of binary mixtures (doi:10.1021/je0498457).
The densities may have been worked out from excess volumes.

Experiment: xn = mol fraction of the nth substance listed
Details: 100 kPa

C1CCOCC1 + CCCCO
Details	mass density [kg/m3]
283.15 K, x1 = 0.3039	841.8
283.15 K, x1 = 0.4059	849.8
283.15 K, x1 = 0.4905	856.3
283.15 K, x1 = 0.6081	865.2
283.15 K, x1 = 0.8027	879.8
298.15 K, x1 = 0.0508	809.8
298.15 K, x1 = 0.1039	814.1
298.15 K, x1 = 0.2056	822.1
298.15 K, x1 = 0.305	829.8
298.15 K, x1 = 0.406	837.4
298.15 K, x1 = 0.4909	843.7
298.15 K, x1 = 0.6079	852.2
298.15 K, x1 = 0.7054	859.3
298.15 K, x1 = 0.8047	866.5
298.15 K, x1 = 0.9043	873.7
298.15 K, x1 = 0.958	877.6
313.15 K, x1 = 0.1039	802.2
313.15 K, x1 = 0.2027	809.4
313.15 K, x1 = 0.3254	818.3
313.15 K, x1 = 0.4883	829.7
313.15 K, x1 = 0.6215	838.8
313.15 K, x1 = 0.8037	851.1
313.15 K, x1 = 0.8978	857.5
